According to US8889671B2, “Compounds and methods for treating bacterial infections” (AstraZeneca AB, priority 2013, dated 2014):

Experiment: Mouse protein unbound fraction
Assay type: in vitro ADME
Details: mean of mouse protein unbound fraction in the range of 1 μM to 50 μM

C[C@@H]1CN2c3c(cc4c(N5C(=O)OC[C@@H]5C)noc4c3F)CC3(C(=O)NC(=O)NC3=O)[C@H]2[C@H](C)O1 [Example 5, (2R,4S,4aS)-11-Fluoro-2,4-dimethyl-8-[(4S)-4-methyl-2-oxo-1,3-oxazolidin-3-yl]-1,2,4,4a-tetrahydro-2′H,6H-spiro[1,4-oxazino[4,3-a][1,2]oxazolo[4,5-g]quinoline-5,5′-pyrimidine]-2′,4′,6′(1′H,3′H)-trione]
murine unbound fraction: 22.1%
fraction unbound (plasma, read-out: murine unbound fraction): 0.221
